This is an account of results in PubChem BioAssay AID1963576 (National Center for Advancing Translational Sciences (NCATS), 2024).

The whole screen tested about 46,000 compounds, of which about 60 (0.1%) were called active. Another 3% or so got no clear call; they are omitted. Calls follow the shape of the dose curve; as a rule, active = well fitted inhibition curve with a large enough effect; inconclusive = small, poorly fitted or top-dose-only effect; inactive = no such curve, though single readings can be large or run the other way. The list shows a part of the results.

The experiment in a line: Primary qHTS assay for Inhibitors of ovarian cancer metastasis using an organotypic tumor microenvironment (TME) model. Also: nearly all actives have a fitted effect of over 65% in size.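 As to activity change, negative = inhibition: plate controls were DMSO wells for no effect and tomatine positive control wells for full effect.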 Particulars: SKOV3ip1-GFP adhesion/invasion on 3D omental model, fluorescence; series mostly up to 45.8 µM; activity change, negative = inhibition: at the top concentration. A digest of the protocol: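 qHTS, 4-pt dose (0.36-46 umol/L); SKOV3ip1-GFP, 1,200 cells/well, no FBS; primary omental fibroblast/mesothelial co-culture 48 h pre-grown; 2 h RT + 16 h 37 C; PBS wash, 4% PFA; GFP count 488/509 nm.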
A general note: In qHTS, concentration-response curves come from the screen itself.
As to `Cc1ccc(C)c(NC(=O)Cn2c(=O)n(Cc3ccccc3)c(=O)c3oc4ccccc4c32)c1`, the “activity change, negative = inhibition” value is inactive: 10.8%.

As to `Nc1ccc(S(=O)(=O)Nc2ccnn2-c2ccccc2)cc1`, the “activity change, negative = inhibition” value is inactive: -7.05%.

Take `Cc1ccc(C)c(N2CCN(Cc3csc(C)c3)CC2)c1`: the result was inactive.

In the case of `Cc1ccc(CN2C(=O)c3ccccc3Sc3ccc(C(=O)OCc4ccco4)cc32)cc1`, the result was inactive.

For the compound `COc1ccc(Br)cc1CNC(=O)c1ccc2c(c1)N(Cc1ccc(C)cc1)CCS2`, the “activity change, negative = inhibition” value was inactive: -0.83%.

Consider `COc1ccc2c(c1)NC(c1cccnc1)=NC(c1ccc(F)cc1)=N2`, for which the “activity change, negative = inhibition” value is inactive: -2.87%.

`Cc1ccc(S(=O)(=O)c2cn(Cc3ccccc3Cl)c3ccc(F)cc3c2=O)cc1`: the “activity change, negative = inhibition” value is inactive: -1.09%.

As to `C[C@@H](N)c1ccc(C(=O)Nc2ccnc3[nH]ccc23)cc1`, the “activity change, negative = inhibition” value is inactive: -11.1%.

As to `CCn1cc2nc(SCc3cc(C)ccc3C)n(Cc3ccc(OC)cc3)c(=O)c2n1`, the outcome was inactive.

Turning to `Cc1cccc(OCCSc2nc3ccc(NC(=O)COc4ccccc4)cc3s2)c1`, the call was inactive.

Turning to `CCCN1CCc2nc(N3CCN(c4ncccn4)CC3)ncc2C1`, the “activity change, negative = inhibition” value was inactive: -3%.

For the compound `Cc1cccc(OCCCn2c(CCNC(=O)C(C)(C)C)nc3ccccc32)c1`, the “activity change, negative = inhibition” value was inactive: -4.71%.

Consider `Cc1ccc(C)c(CN2C(=O)c3ccccc3S(=O)(=O)c3ccc(C(=O)NCc4ccccc4)cc32)c1`, for which the “activity change, negative = inhibition” value was inactive: -4.33%.

`Cc1c(C(=O)NCc2ccccc2Cl)sc2nc[nH]c(=O)c12`: the “activity change, negative = inhibition” value is inactive: 12.4%.

For `COc1ccc(CN(Cc2ccco2)c2cnc(S(C)(=O)=O)nc2C(=O)Nc2ccc(C)cc2C)cc1`, the “activity change, negative = inhibition” value is inactive: 1.31%.

As for `COc1ccc(S(=O)(=O)Nc2cc3c(cc2NCc2ccccc2)n(C)c(=O)n3C)cc1`, the “activity change, negative = inhibition” value is inactive: -6.86%.

In the case of `CCOc1ccc(C(=O)Nc2ccc3oc(-c4cccnc4)nc3c2)cc1`, the “activity change, negative = inhibition” value is inactive: 5.85%.

With `CCOCCCNC(=O)C(=O)Nc1c2c(nn1-c1ccc(OC)cc1)CSC2`, the “activity change, negative = inhibition” value was inactive: 2.41%.

With `Cc1ccc2c(=O)c(C(=O)c3ccc(F)cc3)cn(CC(=O)NCCc3ccccc3)c2n1`, the “activity change, negative = inhibition” value was inactive: -15.8%.

In the case of `Cc1nc(-c2ccc(S(=O)(=O)N3CCN(c4ccc(F)cc4)CC3)cc2)co1`, the “activity change, negative = inhibition” value is inactive: -5.5%.

Turning to `CCn1cc(C(=O)NCc2ccc(C)cc2)c(=O)c2cc(S(=O)(=O)N3CCc4ccccc4C3)ccc21`, the call was inactive.

Regarding `O=C(CN1CCCN(Cc2ccc(F)cc2)S1(=O)=O)NCc1ccccc1Cl`, the result was inactive.

Consider `CN1CCN(CCCNC(=O)c2ccc3nc(Cc4ccccc4)oc3c2)CC1`, for which the “activity change, negative = inhibition” value is inactive: 9.81%.

Consider `Cc1ccc(-n2nc3c(=O)n(CCCC(=O)NCc4ccccc4F)nc(C)c3c2C)cc1`, for which the “activity change, negative = inhibition” value is inactive: -23.8%.

As to `O=C(CSc1nc2ccncc2[nH]1)Nc1ccccc1C(F)(F)F`, the “activity change, negative = inhibition” value is inactive: 9.84%.

Turning to `O=C(Nc1c(C(=O)N2CCN(c3ccccc3F)CC2)oc2ccccc12)c1ccccc1F`, the “activity change, negative = inhibition” value was inactive: -5.97%.

In the case of `Cc1csc2nc(COC(=O)CNC(=O)c3ccccc3Cl)cc(=O)n12`, the “activity change, negative = inhibition” value is inactive: -14%.

Take `COc1cccc2c1Oc1ncccc1N(C(=O)CCC(=O)NCc1ccc(C)cc1)C2`: the “activity change, negative = inhibition” value was inactive: 1.46%.

As for `COc1ccccc1-c1nnc(C2CCN(C(=O)c3ccc(Cl)cc3)CC2)o1`, the “activity change, negative = inhibition” value is inactive: -11.8%.

As for `Cc1ccc(Cn2c(CNC(=O)c3cccc(C)c3)nc3ccccc32)cc1`, the “activity change, negative = inhibition” value was inactive: 2.76%.

With `CCC(=O)N1CCc2cc(Br)cc(S(=O)(=O)CCC(=O)NCc3ccc(F)cc3)c21`, the “activity change, negative = inhibition” value is inactive: -3.72%.

Consider `CC(=O)N1CCOc2cc(S(=O)(=O)N(C)Cc3ccccc3)c(Cl)cc21`, for which the “activity change, negative = inhibition” value is inactive: 3.93%.

Consider `N#Cc1ccccc1NC(=O)c1cnc(N2CCOCC2)c2ccccc12`, for which the “activity change, negative = inhibition” value was inactive: 15.1%.

In the case of `CCc1ccc(N(C)S(=O)(=O)c2ccc3[nH]cc(C(=O)NCC4CCCO4)c(=O)c3c2)cc1` (stereo unspecified), the “activity change, negative = inhibition” value is inactive: -0.319%.

On to `COc1ccc(C)cc1NC(=O)CSc1nc(=O)n(Cc2ccccn2)c2c1CCC2`, for which the “activity change, negative = inhibition” value is inactive: 1.91%.

As for `Cc1oc(-c2ccc(C(=O)Nc3ccccc3F)cc2)nc1COc1ccccc1`, the “activity change, negative = inhibition” value was inactive: 3.84%.

With `CCN1C(=O)C(Cc2nc3ccccc3c(=O)n2-c2ccccc2)c2cc(Br)ccc21` (stereo unspecified), the “activity change, negative = inhibition” value was inactive: -4.05%.

On to `CCc1ccc2nc(N3CCN(C(=O)C4CC4)CC3)sc2c1`, for which the “activity change, negative = inhibition” value was inactive: -1.79%.

Take `CCOc1ccccc1NC(=O)Cn1c2ncccc2c(=O)n1-c1ccc(C)c(C)c1`: the “activity change, negative = inhibition” value was inactive: 5.15%.

Consider `COc1ccc(CNc2oc(-c3ccc(COc4ccc(OC)cc4)o3)nc2C#N)cc1`, for which the “activity change, negative = inhibition” value is inactive: 1.19%.

As to `Cc1cccc(C)c1NC(=O)CN1C(=O)c2cccc3cccc1c23`, the “activity change, negative = inhibition” value is inactive: 8.89%.

On to `COc1ccc(C2C(=O)N(C3CCC(C)CC3)CC(=O)N2CCC2=CCCCC2)cc1OC` (stereo unspecified), for which the “activity change, negative = inhibition” value is inactive: -3.96%.

On to `CCOc1ccc(NC(=O)CN2C(=O)C3(SCC(=O)N3c3ccc(F)cc3)c3ccccc32)cc1` (stereo unspecified), for which the outcome was inactive.

On to `CC(=O)N1CCCc2cc(S(=O)(=O)Nc3ccc(C)c(F)c3)ccc21`, for which the “activity change, negative = inhibition” value is inactive: 2.07%.

Take `Cc1oc2c(c(C)cc3oc(=O)c(CC(=O)NCc4ccc(F)cc4)c(C)c32)c1C`: the “activity change, negative = inhibition” value was inactive: -0.84%.

For `Cc1cccc(NC(=O)Cn2c(=O)oc3cc(S(=O)(=O)NC4CCCC4)ccc32)c1`, the “activity change, negative = inhibition” value is inactive: -2.98%.

`CCOC(=O)c1ccc(NS(=O)(=O)c2ccc3[nH]c4c(c3c2)CCCCC4)cc1`: the “activity change, negative = inhibition” value is inactive: -5.09%.

Take `Cc1cc(C)c(OCC(=O)N(Cc2cccc(F)c2)Cc2ccco2)c(C)c1`: the “activity change, negative = inhibition” value is inactive: 4%.

For the compound `CC(=O)N1CCc2cc(S(=O)(=O)NC(Cc3ccccc3)C(=O)Nc3ccc(Cl)cc3)ccc21` (stereo unspecified), the “activity change, negative = inhibition” value was inactive: 10.9%.

Turning to `CCc1nn(CC(=O)N2CCN(c3cccc(C(F)(F)F)c3)CC2)c(=O)c2cccn12`, the “activity change, negative = inhibition” value is inactive: -1.19%.

Turning to `COc1ccc2c(c1)c1c(c(=O)n(-c3ccccc3C)c(=O)n1Cc1c(F)cccc1Cl)n2C`, the “activity change, negative = inhibition” value is inactive: 1.99%.

In the case of `Cc1cccc(Nc2c3c(nc4nncn24)CCC3)c1C`, the “activity change, negative = inhibition” value is inactive: -20.8%.

Take `CC1Cc2ccccc2N1NC(=O)c1ccc(Cl)c(S(N)(=O)=O)c1` (stereo unspecified): the “activity change, negative = inhibition” value is inactive: 6.53%.

Regarding `CCOC(=O)C1(C)C=C(Nc2ccc(C(=O)O)cc2)C(=O)N1c1ccc(C(=O)O)cc1` (stereo unspecified), the “activity change, negative = inhibition” value was inactive: -7.25%.

With `CCCCN(C)C(=O)Cn1c(SCC(=O)Nc2ccc(C)c(C)c2)nc2ccccc21`, the “activity change, negative = inhibition” value is inactive: 1.35%.

Take `CCOC(=O)c1c(C)oc2nc(C)nc(NCC3CCN(Cc4cccc(Cl)c4)CC3)c12`: the “activity change, negative = inhibition” value is inactive: 0.718%.

`CCOC(=O)C1CCCN(C(=O)Cn2nc(CC)n3c(cc4occc43)c2=O)C1` (stereo unspecified): the compound was called inactive.

Consider `Cc1cccc(NC(=O)C2CCCN(c3nc4ccccc4s3)C2)c1C` (stereo unspecified), for which the “activity change, negative = inhibition” value is inactive: -20.4%.

As to `Cc1cc(Nc2ccc(F)cc2)nc(-n2nc(C)cc2C)n1`, the “activity change, negative = inhibition” value was inactive: 0.313%.

On to `O=S(=O)(Nc1ccc(Cl)cc1)c1cccc(S(=O)(=O)c2ccc(Cl)c(Cl)c2)c1`, for which the “activity change, negative = inhibition” value was inactive: 3.45%.

In the case of `CC(=O)c1ccc(N2C(=O)N(Cc3cc(C)ccc3C)c3ccccc3S2(=O)=O)cc1`, the “activity change, negative = inhibition” value is inactive: 7.42%.
